Measured values reported in PubChem BioAssay (Tox21).
Where “and” joins values, the source holds several entries; their conditions need not be identical. Equal values may be shown once. Inconclusive means that the source gave no clear call. Such entries were picked first, then a sample of the others. For some assays here: Where the call is inconclusive, the potency comes from a doubtful curve fit. Calls of active or inactive are those of the source. Unless noted, calls come from the whole dose curve; as a rule, active = well fitted curve in the direction sought with a large enough effect in the repeat runs; inconclusive = weak or mixed curves; inactive = no such curve, though single readings can be large; an effect the other way counts as inactive or inconclusive.

Assays:
[1] = target: Glucocorticoid receptor (Homo sapiens) (UniProt P04150); assay: qHTS assay to identify small molecule antagonists of the glucocorticoid receptor (GR) signaling pathway (AID 720692; active = well fitted inhibition curve with a large enough effect in the signal ratio in the repeat runs, not every such curve was filed as active; inconclusive = weak or mixed curves, or effect the other way; inactive = no such curve, though single readings can be large or run the other way; the % refers to the signal ratio; note: % is set by controls: 0 for no effect and ±100 for the full control effect); settings: GR-bla HeLa, beta-lactamase FRET ratio, dexamethasone-stimulated, 18 h; activity change, negative = inhibition: at 58.5 µM (top of the series) unless noted
Method in brief: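 In a 1536-well cell format, compounds were added 4 h after seeding GR-bla HeLa cells, together with dexamethasone at 5 nM final; reporter activity was measured by FRET-substrate fluorescence following 18 h at 37 C.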

[2] = qHTS assay to identify small molecule antagonists of the thyroid receptor (TR) signaling pathway - cell viability counter screen (AID 743064); settings: GH3.TRE-Luc viability, CellTiter-Fluor, 24 h; activity change, negative = cytotoxic: at 70.3 µM (top of the series) unless noted; note: nearly all actives have a fitted effect of over 50% in size; note: potency is the fitted concentration of half-maximal effect
Method in brief: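 Counter screen for cytotoxicity: compound plus T3 (1 nM final) on GH3.TRE-Luc cells, 23.5 h at 37 °C, then fluorescence viability readout with CellTiter-Fluor.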

[3] = target: Retinoic acid receptor RXR-alpha (Homo sapiens) (UniProt P19793); assay: qHTS assay to identify small molecule agonists of the RXR signaling pathway (AID 1159527; calls by dose curve; note: nearly all actives have a fitted effect of over 35% in size; note: potency is the fitted concentration of half-maximal effect); settings: HEK293T RXRa-UAS-bla, beta-lactamase ratio, 16 h; activation: at 76.8 µM (top of the series) unless noted
Method in brief: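 Fluorescence ratio readout (460 vs 530 nm) from GeneBLAzer RXR-alpha HEK 293T cells after 16 hr compound treatment; cells seeded 5 hr beforehand in low-serum, charcoal-stripped medium.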

[4] = qHTS assay to identify small molecule antagonists of the sonic hedgehog signaling (Shh) pathway (AID 1259369; calls by dose curve; note: nearly all actives have a fitted effect of over 45% in size; note: potency is the fitted concentration of half-maximal effect)
Method in brief: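 Read-out is luminescence from a firefly luciferase gene controlled by the Gli1 response element, in 3T3Gli1-Luc cells pre-incubated 4hr then exposed to compounds and conditioned medium for 24hr.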

[5] = target: Progesterone receptor (Homo sapiens) (UniProt P06401); assay: qHTS assay to identify small molecule antagonists of the progesterone receptor (PR) signaling pathway (AID 1346795; active = well fitted inhibition curve with a large enough effect in the signal ratio in the repeat runs, not every such curve was filed as active; inconclusive = weak or mixed curves; the % refers to the signal ratio; note: potency is the fitted concentration of half-maximal effect); settings: PR-UAS-bla HEK293T, beta-lactamase FRET ratio, 16 h; activity change, negative = inhibition: at 92.4 µM (top of the series) unless noted
Method in brief: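 Inhibition of R5020-induced (1 nM final) beta-lactamase reporter signal in PR-UAS-bla HEK293T cells was scored by FRET fluorescence after overnight (16 hr) compound treatment.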

[6] = qHTS assay to identify small molecule antagonists of the progesterone receptor (PR) signaling pathway - cell viability counter screen (AID 1346798); note: potency is the fitted concentration of half-maximal effect; nearly all actives have a fitted effect of over 50% in size
Method in brief: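 ATP content as viability readout: CellTiter-Glo luminescence, 30 min room temperature, in PR-UAS-bla HEK293T cells after 16 hr compound/R5020 treatment at 37C and 5% CO2.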

[7] = target: Cytochrome P450 2C19 (Homo sapiens) (UniProt P33261); assay: Cytochrome P450 Family 2 Subfamily C Member 19 (CYP2C19) small molecule antagonists: luciferase reporter qHTS assay (AID 1671197); note: potency is the fitted concentration of half-maximal effect; nearly all actives have a fitted effect of over 65% in size
Method in brief: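 P450-Glo CYP2C19 screening system; proluciferin substrate; DMSO compound stocks; 10 min RT preincubation; NADPH regeneration, 1 h at 37C; luciferin detection reagent, 20 min RT; luminescence as RLU.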

[8] = qHTS assay for small molecule disruptors of the mitochondrial membrane potential (AID 720635); settings: HepG2 mitochondrial membrane potential, Mito-MPS dye ratio; ratio activity, negative = MMP loss: at 83.2 µM (top of the series) unless noted; note: potency is the fitted concentration of half-maximal effect
Method in brief: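 HepG2 cells (2,000/well) attached overnight at 37C, then took compound for 1 hr at 37C, 5% CO2. Mito-MPS dye was added for 30 min; fluorescence was read at 490/535 nm (monomers) and 540/590 nm (aggregates).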

[9] = target: Peroxisome proliferator-activated receptor gamma (Homo sapiens) (UniProt P37231); assay: qHTS assay to identify small molecule antagonists of the peroxisome proliferator-activated receptor gamma (PPARg) signaling pathway (AID 743191; calls by dose curve; note: % is set by controls: 0 for no effect and ±100 for the full control effect; nearly all actives have a fitted effect of over 30% in size); settings: HEK293H PPARg-UAS-bla, beta-lactamase ratio, antagonist, 17 h; ratio activity, negative = inhibition: at 62.6 µM (top of the series) unless noted
Method in brief: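 GeneBLAzer PPARg UAS-bla HEK293H cells carrying a UAS-driven beta-lactamase reporter were plated at 3000 cells/well, preincubated 5 h at 37C, then given compound for 17 h at 37C; LiveBLAzer B/G FRET substrate was read after 1 h at room temperature.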

[10] = qHTS assay for small molecule agonists of the antioxidant response element (ARE) signaling pathway (AID 743202; active = well fitted activation curve with a large enough effect in the signal ratio in the repeat runs, not every such curve was filed as active; inconclusive = weak or mixed curves, or effect the other way; inactive = no such curve, though single readings can be large or run the other way; the % refers to the signal ratio; note: % is set by controls: 0 for no effect and ±100 for the full control effect); settings: HepG2 ARE-bla reporter, beta-lactamase FRET, 16 h; activation: at 73.3 µM (top of the series) unless noted
Method in brief: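 Following a 16 h, 37 C exposure of reporter HepG2 cells (ARE-driven beta-lactamase, 2,000 cells/well) to compounds, FRET substrate was applied for 2 h at room temperature and fluorescence intensity recorded.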

[11] = qHTS assay to identify small molecule antagonists of the peroxisome proliferator-activated receptor delta (PPARd) signaling pathway - cell viability counter screen (AID 743213); settings: PPARd-bla HEK293H viability, CellTiter-Glo luminescence, 17 h; viability change, negative = cytotoxic: at 62 µM (top of the series) unless noted; note: potency is the fitted concentration of half-maximal effect; nearly all actives have a fitted effect of over 50% in size
Method in brief: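 CellTiter-Glo was added to PPARd-bla HEK293H wells following 17 h compound treatment in the presence of 300 nM L165041. Luminescence was recorded after 30 min at room temperature.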

[12] = target: Cytochrome P450 2D6 (Homo sapiens) (UniProt P10635); assay: Cytochrome P450 Family 2 Subfamily D Member 6 (CYP2D6) small molecule antagonists: luciferase reporter qHTS assay (AID 1671196); note: nearly all actives have a fitted effect of over 50% in size; note: potency is the fitted concentration of half-maximal effect
Method in brief: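 Room-temperature luminescent CYP2D6 activity assay: compound preincubated 10 min with enzyme–substrate mix, NADPH-initiated reaction 1 h, detection reagent 20 min before reading.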

[13] = target: Vitamin D3 receptor (Homo sapiens) (UniProt P11473); assay: qHTS assay to identify small molecule antagonists of the vitamin D receptor (VDR) signaling pathway (AID 743223; active = well fitted inhibition curve with a large enough effect in the signal ratio in the repeat runs, not every such curve was filed as active; inconclusive = weak or mixed curves, or effect the other way; inactive = no such curve, though single readings can be large or run the other way; the % refers to the signal ratio; note: % is set by controls: 0 for no effect and ±100 for the full control effect); settings: VDR-UAS-bla HEK293T, beta-lactamase FRET ratio, 16 h; activity change, negative = inhibition: at 61 µM (top of the series) unless noted
Method in brief: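 Beta-lactamase activity in VDR-bla cells is measured by FRET substrate fluorescence (2 h, room temperature) after cells spend 16 h at 37C with test compound and 3 nM final 1alpha,25-dihydroxyvitamin D3.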

[14] = qHTS assay to identify small molecule agonists of the progesterone receptor (PR) signaling pathway - cell viability counter screen (AID 1346799; calls by dose curve; note: nearly all actives have a fitted effect of over 45% in size; note: potency is the fitted concentration of half-maximal effect)
Method in brief: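 Cytotoxicity in PR-bla HEK293T cells: 16 h compound, 37C; CellTiter-Glo added post-FRET read; luminescence after 30 min RT.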

[15] = qHTS assay for identifying genotoxic compounds that show differential cytotoxicity against isogenic chicken DT40 cell lines with known DNA damage response pathways - Rev3 mutant cell line (AID 743014); settings: chicken DT40 Rev3-/- viability, CellTiter-Glo, 40 h; activity, negative = cytotoxicity: at 68.4 µM (top of the series); note: nearly all actives have a fitted effect of over 55% in size; note: potency is the fitted concentration of half-maximal effect
[16] = qHTS assay to identify small molecule agonists of the farnesoid-X-receptor (FXR) signaling pathway - cell viability counter screen (AID 743218); settings: FXR-bla HEK293T viability, CellTiter-Glo luminescence, 16 h; viability change, negative = cytotoxic: at 62.6 µM (top of the series); note: % is set by controls: 0 for no effect and ±100 for the full control effect; nearly all actives have a fitted effect of over 45% in size
Method in brief: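 Quantitative HTS counter screen measuring ATP-based viability via CellTiter-Glo luminescence in HEK 293T cells carrying a UAS-driven beta-lactamase reporter, after 16 h compound exposure at 37 C.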

[17] = target: Cytochrome P450 2C9 (Homo sapiens) (UniProt P11712); assay: Cytochrome P450 Family 2 Subfamily C Member 9 (CYP2C9) small molecule antagonists: luciferase reporter qHTS assay (AID 1671198)
Method in brief: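 CYP2C9 activity was measured with a P450-Glo proluciferin substrate. Enzyme–substrate mix was held with compound for 10 min at room temperature, then NADPH regeneration solution was added for 1 h at 37C. Luciferin product was read as luminescence.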

[18] = target: Estrogen receptor beta (Homo sapiens) (UniProt Q92731); assay: qHTS assay to identify small molecule antagonists of the estrogen receptor beta (ER-beta) signaling pathway (AID 1259378; active = well fitted inhibition curve with a large enough effect in the signal ratio in the repeat runs, not every such curve was filed as active; inconclusive = weak or mixed curves, or effect the other way; inactive = no such curve, though single readings can be large or run the other way; the % refers to the signal ratio; note: % is set by controls: 0 for no effect and ±100 for the full control effect); settings: ER-beta-UAS-bla HEK293T, beta-lactamase FRET ratio, 16 h; activity, negative = inhibition: at 92.4 µM (top of the series) unless noted
Method in brief: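 ER-beta-UAS-bla HEK293T (GripTite) cells in 2% charcoal-stripped FBS medium were preincubated 6 hr at 37C, dosed with compound, then stimulated with 1 nM E2 (final) for 16 hr; beta-lactamase reporter read by B/G FRET fluorescence after 2 hr substrate loading.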
Tags give direction and shape of the fitted curve or compound fluorescence and quenching.

Sequence of UniProt P10635 (P10635 whole entry, looked up): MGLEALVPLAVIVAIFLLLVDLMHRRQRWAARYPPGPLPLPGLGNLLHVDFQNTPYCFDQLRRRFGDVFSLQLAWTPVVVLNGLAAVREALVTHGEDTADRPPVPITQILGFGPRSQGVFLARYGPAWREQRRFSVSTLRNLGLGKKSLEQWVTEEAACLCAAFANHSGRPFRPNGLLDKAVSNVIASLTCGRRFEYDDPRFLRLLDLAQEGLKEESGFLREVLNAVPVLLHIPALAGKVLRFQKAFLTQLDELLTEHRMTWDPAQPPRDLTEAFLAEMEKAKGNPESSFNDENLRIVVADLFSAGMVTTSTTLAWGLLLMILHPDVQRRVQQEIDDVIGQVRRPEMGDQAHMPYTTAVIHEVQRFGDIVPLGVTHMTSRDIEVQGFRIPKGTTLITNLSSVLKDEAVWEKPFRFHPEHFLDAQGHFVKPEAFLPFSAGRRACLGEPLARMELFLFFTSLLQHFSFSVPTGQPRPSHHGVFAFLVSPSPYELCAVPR
Sequence of UniProt P11473 (P11473 whole entry, looked up): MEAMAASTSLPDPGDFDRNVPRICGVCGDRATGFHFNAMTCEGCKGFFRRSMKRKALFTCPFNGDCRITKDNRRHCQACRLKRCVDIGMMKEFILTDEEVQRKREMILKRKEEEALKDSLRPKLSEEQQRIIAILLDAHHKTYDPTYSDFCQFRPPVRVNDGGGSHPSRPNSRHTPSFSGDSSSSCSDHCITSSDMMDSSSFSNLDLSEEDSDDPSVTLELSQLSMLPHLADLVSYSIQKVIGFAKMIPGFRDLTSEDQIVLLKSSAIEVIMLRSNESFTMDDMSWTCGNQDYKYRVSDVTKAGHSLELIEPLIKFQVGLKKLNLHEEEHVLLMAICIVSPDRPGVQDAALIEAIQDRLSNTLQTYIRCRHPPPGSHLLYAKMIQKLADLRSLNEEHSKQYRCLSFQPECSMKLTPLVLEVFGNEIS
Sequence of UniProt P04150 (P04150 whole entry, looked up): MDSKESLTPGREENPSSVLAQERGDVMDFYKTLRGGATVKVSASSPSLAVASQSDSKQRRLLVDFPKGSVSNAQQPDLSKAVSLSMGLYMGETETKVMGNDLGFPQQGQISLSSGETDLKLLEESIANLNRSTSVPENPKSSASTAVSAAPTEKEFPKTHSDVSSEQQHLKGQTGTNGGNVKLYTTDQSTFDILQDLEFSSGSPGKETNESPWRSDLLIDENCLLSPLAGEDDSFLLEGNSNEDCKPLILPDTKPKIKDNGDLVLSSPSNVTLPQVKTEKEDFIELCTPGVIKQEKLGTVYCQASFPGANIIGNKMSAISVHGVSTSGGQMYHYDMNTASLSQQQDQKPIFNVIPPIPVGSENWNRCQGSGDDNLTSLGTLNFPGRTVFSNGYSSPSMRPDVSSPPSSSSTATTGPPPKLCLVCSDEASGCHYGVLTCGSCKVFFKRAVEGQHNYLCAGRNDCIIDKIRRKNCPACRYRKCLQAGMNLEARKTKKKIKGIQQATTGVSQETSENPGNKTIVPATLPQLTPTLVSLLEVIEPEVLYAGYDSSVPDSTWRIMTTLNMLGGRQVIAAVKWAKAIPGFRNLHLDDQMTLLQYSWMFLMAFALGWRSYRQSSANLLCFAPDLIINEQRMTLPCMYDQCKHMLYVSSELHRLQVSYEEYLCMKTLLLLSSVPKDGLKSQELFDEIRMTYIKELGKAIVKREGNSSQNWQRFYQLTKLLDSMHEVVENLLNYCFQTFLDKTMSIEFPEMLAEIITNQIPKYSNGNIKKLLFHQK
Sequence of UniProt P19793 (P19793 whole entry, looked up): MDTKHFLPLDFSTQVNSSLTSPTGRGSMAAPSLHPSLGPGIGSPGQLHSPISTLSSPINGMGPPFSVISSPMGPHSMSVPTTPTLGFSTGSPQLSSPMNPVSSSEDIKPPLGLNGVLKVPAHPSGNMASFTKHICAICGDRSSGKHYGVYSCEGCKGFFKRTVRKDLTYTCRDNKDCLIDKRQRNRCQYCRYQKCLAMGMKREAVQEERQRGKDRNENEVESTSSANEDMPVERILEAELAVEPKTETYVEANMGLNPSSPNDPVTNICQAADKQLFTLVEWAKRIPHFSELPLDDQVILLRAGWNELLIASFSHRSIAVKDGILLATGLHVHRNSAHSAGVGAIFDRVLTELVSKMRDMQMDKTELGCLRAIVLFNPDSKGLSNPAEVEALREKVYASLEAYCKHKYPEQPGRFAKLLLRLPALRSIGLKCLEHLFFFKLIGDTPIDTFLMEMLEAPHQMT
Sequence of UniProt P33261 (P33261 whole entry, looked up): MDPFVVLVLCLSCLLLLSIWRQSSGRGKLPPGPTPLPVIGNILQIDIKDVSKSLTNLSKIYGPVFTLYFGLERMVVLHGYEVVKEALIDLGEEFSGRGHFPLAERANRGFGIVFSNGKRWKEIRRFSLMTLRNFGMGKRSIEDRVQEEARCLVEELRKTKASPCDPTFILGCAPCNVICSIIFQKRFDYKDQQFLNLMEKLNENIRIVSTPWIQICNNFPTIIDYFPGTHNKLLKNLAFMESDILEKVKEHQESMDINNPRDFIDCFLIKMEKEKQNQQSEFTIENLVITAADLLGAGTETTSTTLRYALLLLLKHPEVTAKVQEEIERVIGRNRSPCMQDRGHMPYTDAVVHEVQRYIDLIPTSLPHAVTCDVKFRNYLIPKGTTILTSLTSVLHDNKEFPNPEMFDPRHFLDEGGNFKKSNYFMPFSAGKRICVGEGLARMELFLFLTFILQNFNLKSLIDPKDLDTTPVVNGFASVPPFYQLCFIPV
Sequence of UniProt P06401 (P06401 whole entry, looked up): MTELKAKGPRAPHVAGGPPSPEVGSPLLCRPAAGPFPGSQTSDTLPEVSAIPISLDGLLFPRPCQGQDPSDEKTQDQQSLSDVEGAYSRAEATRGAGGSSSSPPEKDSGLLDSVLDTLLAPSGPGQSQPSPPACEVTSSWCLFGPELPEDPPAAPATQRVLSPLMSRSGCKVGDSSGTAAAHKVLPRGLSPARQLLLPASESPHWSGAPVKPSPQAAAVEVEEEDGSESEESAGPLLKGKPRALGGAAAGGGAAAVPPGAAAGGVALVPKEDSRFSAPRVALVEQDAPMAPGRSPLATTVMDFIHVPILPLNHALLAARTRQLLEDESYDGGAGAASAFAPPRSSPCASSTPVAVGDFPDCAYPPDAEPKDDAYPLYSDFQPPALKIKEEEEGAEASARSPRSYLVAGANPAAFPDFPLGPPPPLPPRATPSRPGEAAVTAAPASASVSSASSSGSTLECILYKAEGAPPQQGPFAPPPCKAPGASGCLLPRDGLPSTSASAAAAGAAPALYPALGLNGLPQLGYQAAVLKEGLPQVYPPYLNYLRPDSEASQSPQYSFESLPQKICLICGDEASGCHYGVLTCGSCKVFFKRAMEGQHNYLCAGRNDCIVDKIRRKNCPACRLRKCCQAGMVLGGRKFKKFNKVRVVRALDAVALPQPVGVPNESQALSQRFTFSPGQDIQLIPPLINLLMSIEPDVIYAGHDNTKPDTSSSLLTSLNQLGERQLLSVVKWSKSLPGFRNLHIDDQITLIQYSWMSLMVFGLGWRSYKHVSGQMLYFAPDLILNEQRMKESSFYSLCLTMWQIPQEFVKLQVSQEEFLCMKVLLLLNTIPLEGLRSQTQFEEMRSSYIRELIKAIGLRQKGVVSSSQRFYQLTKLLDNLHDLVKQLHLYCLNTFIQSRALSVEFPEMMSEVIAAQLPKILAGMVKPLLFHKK
Sequence of UniProt P37231 (P37231 whole entry, looked up): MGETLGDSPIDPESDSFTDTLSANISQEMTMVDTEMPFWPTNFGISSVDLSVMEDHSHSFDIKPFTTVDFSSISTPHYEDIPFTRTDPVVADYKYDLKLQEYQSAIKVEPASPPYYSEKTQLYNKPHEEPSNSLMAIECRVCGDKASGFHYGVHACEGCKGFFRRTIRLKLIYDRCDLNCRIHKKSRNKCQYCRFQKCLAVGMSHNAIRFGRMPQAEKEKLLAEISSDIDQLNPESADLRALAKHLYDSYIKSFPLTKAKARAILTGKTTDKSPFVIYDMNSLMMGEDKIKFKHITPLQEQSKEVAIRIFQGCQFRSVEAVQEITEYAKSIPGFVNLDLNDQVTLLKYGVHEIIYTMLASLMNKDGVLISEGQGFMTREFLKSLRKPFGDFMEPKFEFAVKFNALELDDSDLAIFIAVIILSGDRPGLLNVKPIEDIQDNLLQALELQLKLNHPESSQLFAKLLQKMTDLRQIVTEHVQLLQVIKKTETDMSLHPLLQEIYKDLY
Sequence of UniProt P11712 (P11712 whole entry, looked up): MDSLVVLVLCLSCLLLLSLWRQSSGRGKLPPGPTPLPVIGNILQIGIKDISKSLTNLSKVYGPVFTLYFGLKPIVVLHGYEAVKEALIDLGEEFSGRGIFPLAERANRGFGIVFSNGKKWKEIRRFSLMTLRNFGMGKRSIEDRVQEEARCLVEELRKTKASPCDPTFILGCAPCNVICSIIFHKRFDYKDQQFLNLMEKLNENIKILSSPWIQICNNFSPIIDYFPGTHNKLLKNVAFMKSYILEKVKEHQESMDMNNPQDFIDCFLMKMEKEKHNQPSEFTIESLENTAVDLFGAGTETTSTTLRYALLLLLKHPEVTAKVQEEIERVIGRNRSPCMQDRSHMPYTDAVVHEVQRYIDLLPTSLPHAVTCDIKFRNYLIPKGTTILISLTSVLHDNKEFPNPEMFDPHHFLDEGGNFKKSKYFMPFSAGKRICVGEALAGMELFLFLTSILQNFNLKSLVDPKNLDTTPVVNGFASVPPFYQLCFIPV

With `COc1nc(NC(C)C)nc(NC(C)C)n1` the Potency [1] was “inactive”, the Potency [2] was inconclusive: 19.3 µM [rising, partial curve, poor fit] and the Potency [3] was “inactive and inconclusive: 15.5 µM [activator, partial curve, poor fit]”. For the same compound, the Potency [4] was inconclusive: 6.13 µM [inhibitor, full curve] and inconclusive: 13.7 µM [inhibitor, full curve, poor fit], the Potency [5] was inconclusive: 27.4 µM and the Potency [6] was inconclusive: 27.4 µM [cytotoxic, partial curve, poor fit]. The Potency [7] was inconclusive: 40 µM [inhibitor, partial curve, poor fit] and inconclusive: 89.4 µM [inhibitor, single point].

In the case of `CCOP(=O)(OCC)OCC`, the Potency [8] is reported as “inactive”, the ratio activity, negative = inhibition [9] is reported as inconclusive: 24.4% and the activation [10] is reported as inconclusive: -3.88%. The Potency [11] was inconclusive: 0.481 µM [cytotoxic, single point], the Potency [3] was active: 5.49 µM and the Potency [6] was inconclusive: 47.7 µM [cytotoxic, partial curve, poor fit]. For the same compound, the Potency [12] was inconclusive: 35 µM [inhibitor, partial curve] and inactive.

With `O=NN1CCOCC1` the Potency [8] was “inactive”, the activation [10] was inconclusive: 8.15% and the Potency [13] was “inactive”. The Potency [3] was “inactive”, the Potency [5] was “inactive” and the Potency [14] was “inactive”. For the same compound, the Potency [12] was “inactive”.

In the case of `COc1ccc(CO)cc1`, the Potency [8] is reported as “inactive”, the Potency [1] is reported as “inactive” and the Potency [15] is reported as inconclusive: 77 µM [cytotoxic, single point]. For the same compound, the Potency [2] was “inactive”, the Potency [10] was “inactive” and the activity change, negative = inhibition [13] was inconclusive: 12.7%. The Potency [3] was “inactive” and the Potency [14] was inconclusive: 77 µM [cytotoxic, single point].

For `CCC(=O)c1ccc(Cl)cc1`, the Potency [8] was inconclusive: 68.6 µM [inhibitor, single point], the Potency [3] was “inactive” and the Potency [12] was inconclusive: 79.6 µM [inhibitor, partial curve, poor fit].

With `CCCCOP(=O)(O)OCCCC` the Potency [15] was “inactive”, the ratio activity, negative = inhibition [9] was inconclusive: -0.704% and the Potency [10] was “inactive”. For the same compound, the Potency [16] was “inactive”, the activation [3] was inconclusive: 16.5% and the Potency [4] was “inactive”. The Potency [12] was inconclusive: 56.4 µM [inhibitor, partial curve] and the Potency [17] was inconclusive: 35.6 µM [inhibitor, partial curve].

For `COC[C@H](C)N(C(=O)CCl)c1c(C)csc1C`, the Potency [3] was “inactive”, the activity, negative = inhibition [18] was inconclusive: 25.5% and the Potency [12] was “inactive”. The Potency [7] was inconclusive: 89.4 µM [inhibitor, single point].
